Assay results as given in paper PMC9574860, “Chemical Toolkit for PARK7: Potent, Selective, and High-Throughput” (Journal of Medicinal Chemistry, 2022).
Out of some 7,900 compounds screened, about 400 (5.1%) showed an effect of 50% or more. The list shows a part of the results.

Biological target: Parkinson's disease protein 7 (PARK7/DJ1) (human, UniProt Q99497)
Assay: primary screen, percent inhibition; read as competition with a fluorescent probe by fluorescence polarization; higher = more effect of the substance
Conditions: 100 µM
Summary of the method: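 Fluorescence-polarization probe displacement (JYQ-107, 20 nM final, 2 h) after 2 h preincubation of PARK7 (0.2 μM final) with each fragment at 100 μM final. Read-out ex/em 480/520 nm; remaining activity derived from FP signal loss relative to reference controls.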

Chain of Parkinson's disease protein 7 (PARK7/DJ1) (Q99497 whole entry, looked up): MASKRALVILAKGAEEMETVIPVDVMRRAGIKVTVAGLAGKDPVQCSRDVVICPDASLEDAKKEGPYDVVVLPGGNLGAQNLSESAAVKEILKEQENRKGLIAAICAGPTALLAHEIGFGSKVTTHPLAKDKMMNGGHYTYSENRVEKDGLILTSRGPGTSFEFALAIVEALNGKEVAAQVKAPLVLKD

In order of rising Inhibition %:
1. CC(C)Cc1nnc(NC(=O)CCl)s1  0.605%
2. CC(=O)c1ccccc1B1OC(C)(C)C(C)(C)O1  1.38%
3. Cc1c(C#N)c(NC(=O)CCl)n(-c2ccc(F)cc2)c1C  1.78%
4. CC1CC(C)CC2(C1)NC(=O)N(CCC1OCCO1)C2=O (stereo not drawn)  2.2%
5. CC(C)Cc1nc(C#N)c(N)o1  2.55%
6. CC1(C)OB(c2ccc(F)cc2[N+](=O)[O-])OC1(C)C  3.67%
7. C=CC(=O)N(CC)Cc1cccc2c1OCO2  3.79%
8. COc1ccc(NC(=O)c2cccnc2S)cc1OC  4.53%
9. C=CC(=O)Nc1ccc2c(c1)CCC(=O)N2CC1CC1  4.69%
10. CC1(C)OB(c2cc(C(F)(F)F)n[nH]2)OC1(C)C  5.19%
11. C=CC(=O)N1CCC(CCF)CC1  5.32%
12. O=C(CCl)N(c1ccccc1)C1CCS(=O)(=O)C1 (stereo not drawn)  5.5%
13. CC(C)(C)CC(C)(C)NC(=O)CC1C=CS(=O)(=O)C1 (stereo not drawn)  5.56%
14. C=CC(=O)N1CCCC(n2ccnn2)C1 (stereo not drawn)  5.87%
15. C=CC(=O)N1CCC(C(=O)c2cccs2)CC1  6.41%
16. C=CC(=O)N(Cc1ccncc1)CC1CCCO1 (stereo not drawn)  6.75%
17. Cc1nn(C)c(Cl)c1C1CCCN1C1CC(C)OC1=O (stereo not drawn)  7.23%
18. C=CC(=O)N(C)Cc1ncc(C)c(OC)c1C  7.33%
19. Cc1ccccc1CN1CCN(C(=O)CCl)CC1.Cl  8.19%
20. N#CC(=Cc1ccc(N2CCNC(=O)C2)cc1)C(N)=O  8.54%
21. O=C(c1ccccc1)C1NC1c1ccccc1 (stereo not drawn)  8.66%
22. CC1CN(C(=O)C=Cc2c(Cl)nc3ccccn23)CCO1 (stereo not drawn)  9.17%
23. C=CC(=O)NCC1CCN(CC#N)CC1  9.24%
24. C=CC(=O)N1CCC(CNS(C)(=O)=O)CC1  9.38%
25. O=S(=O)(C=Cc1ccccc1)N1CCNCC1  9.53%
26. Cc1cc(Cn2cnc(C#N)n2)no1  10.9%
27. C=CC(=O)NCC(=O)NC1CCOc2ccccc21 (stereo not drawn)  11.3%
28. CCCn1c(C)cc(C=C(C#N)C(=O)N2CCC2)c1C  11.8%
29. CC(C)Oc1cccc(CNC(=O)CCl)c1  12.2%
30. C=CC(=O)NC1CC=CCC1 (stereo not drawn)  18.2%
31. Cc1ccc(Sc2ccc(NC(=O)CCl)cc2)cc1C  34.5%
32. CC(C)(C)C(=O)NNS(=O)(=O)c1cccc(S(=O)(=O)F)c1  97.2%
33. O=C(Nc1cccc(S(=O)(=O)F)c1)C1CCCC1  99.8%
